{"source": "paper PMC4336329", "about": "(PLoS ONE, 2015)", "note": "The campaign covered roughly 310,000 compounds. About 14,000 (4.5%) showed an effect of 50% or more. The effect is printed as a negative number. Some of the results follow.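 Also: peak tail current of the secondary pulse compared with the same well before compound.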", "data": [{"target": "human ether-à-go-go-related gene (hERG) potassium channel (human, UniProt Q12809)", "sequence (Q12809 whole entry, looked up)": "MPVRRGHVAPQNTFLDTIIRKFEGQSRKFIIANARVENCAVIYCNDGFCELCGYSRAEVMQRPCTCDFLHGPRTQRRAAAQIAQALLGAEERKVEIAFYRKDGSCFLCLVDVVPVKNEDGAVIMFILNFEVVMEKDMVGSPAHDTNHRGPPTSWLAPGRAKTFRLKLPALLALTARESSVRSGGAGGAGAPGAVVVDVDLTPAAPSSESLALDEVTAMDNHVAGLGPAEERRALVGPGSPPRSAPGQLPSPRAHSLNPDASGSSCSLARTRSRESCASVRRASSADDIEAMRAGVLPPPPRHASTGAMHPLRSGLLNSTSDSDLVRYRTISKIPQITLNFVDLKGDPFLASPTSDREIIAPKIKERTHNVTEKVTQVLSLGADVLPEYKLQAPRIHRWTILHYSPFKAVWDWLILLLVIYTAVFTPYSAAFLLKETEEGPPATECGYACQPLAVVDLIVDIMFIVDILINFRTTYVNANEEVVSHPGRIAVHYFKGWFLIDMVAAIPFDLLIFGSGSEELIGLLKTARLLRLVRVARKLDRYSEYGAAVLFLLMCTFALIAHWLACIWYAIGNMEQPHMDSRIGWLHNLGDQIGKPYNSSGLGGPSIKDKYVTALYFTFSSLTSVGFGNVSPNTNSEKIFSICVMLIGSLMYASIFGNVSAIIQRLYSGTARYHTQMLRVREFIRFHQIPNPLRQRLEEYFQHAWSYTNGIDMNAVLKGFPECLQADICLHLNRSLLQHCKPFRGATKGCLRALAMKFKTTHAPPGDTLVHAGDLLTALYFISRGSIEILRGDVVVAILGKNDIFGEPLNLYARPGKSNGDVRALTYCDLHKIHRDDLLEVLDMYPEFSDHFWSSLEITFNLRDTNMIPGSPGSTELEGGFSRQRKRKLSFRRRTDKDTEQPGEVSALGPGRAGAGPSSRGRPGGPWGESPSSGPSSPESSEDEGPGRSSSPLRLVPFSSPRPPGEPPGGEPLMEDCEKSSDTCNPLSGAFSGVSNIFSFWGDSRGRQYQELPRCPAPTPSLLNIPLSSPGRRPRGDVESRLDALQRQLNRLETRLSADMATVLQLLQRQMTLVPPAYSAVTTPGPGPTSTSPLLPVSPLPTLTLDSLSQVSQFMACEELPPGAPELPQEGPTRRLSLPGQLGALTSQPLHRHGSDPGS", "test": "primary screen, population patch clamp on CHO cells stably expressing hERG", "units": {"hERG current change (%, negative = inhibition) at 10uM": "%"}, "values": [{"compound": "COc1ccc(NC(=O)C(=O)NCc2ccncc2)c(OC)c1", "hERG current change (%, negative = inhibition) at 10uM": 2.68}, {"compound": "Cc1cccc(N2CCN(C(=O)COc3cc4oc(=O)cc(C)c4cc3Cl)CC2)c1C", "hERG current change (%, negative = inhibition) at 10uM": 13.9}, {"compound": "Cc1cc(C(=O)OCC(=O)c2ccc3c(c2)OCCO3)c(C)o1", "hERG current change (%, negative = inhibition) at 10uM": -7.97}, {"compound": "COc1ccc(NC(=O)c2ccccc2Oc2ccccc2)c(OC)c1", "hERG current change (%, negative = inhibition) at 10uM": 1.42}, {"compound": "CC(=O)Nc1ccc(SCC(=O)Nc2ccccc2-c2ccccc2)cc1", "hERG current change (%, negative = inhibition) at 10uM": -10.6}, {"compound": "Cc1ccc(-n2c(C)cc(/C=N/NC(=O)c3ccncc3)c2C)c(C)c1", "hERG current change (%, negative = inhibition) at 10uM": 1.67}, {"compound": "C/C(=N\\NC(=O)c1ccc(N2CCCC2=O)cc1)c1ccncc1", "hERG current change (%, negative = inhibition) at 10uM": 26.7}, {"compound": "COC(=O)c1ccc(OC(=O)C23CCC(C)(C(=O)O2)C3(C)C)cc1", "note": "(centres unmarked)", "hERG current change (%, negative = inhibition) at 10uM": -4.97}, {"compound": "Cc1ccc(C)c(C(=O)CCC(=O)O)c1", "hERG current change (%, negative = inhibition) at 10uM": 5.2}, {"compound": "CC(=O)c1ccc(N2CCCC2)c(F)c1", "hERG current change (%, negative = inhibition) at 10uM": 1.88}, {"compound": "COc1ccc(NC(=O)c2sc3nc(C)cc(C)c3c2N)cc1", "hERG current change (%, negative = inhibition) at 10uM": 28.6}, {"compound": "CC(C)(C)NC(=O)NC(=O)COC(=O)C1(C)CC1(Cl)Cl", "note": "(centres unmarked)", "hERG current change (%, negative = inhibition) at 10uM": -1.13}, {"compound": "N#Cc1ccsc1NC(=O)C1=COCCO1", "hERG current change (%, negative = inhibition) at 10uM": -0.941}, {"compound": "COC(=O)c1cc2ccsc2n1Cc1cc(=O)n2ccccc2n1", "hERG current change (%, negative = inhibition) at 10uM": -5.33}, {"compound": "S=c1[nH]nc(-c2cccs2)n1C1CCCCC1", "hERG current change (%, negative = inhibition) at 10uM": 7.17}, {"compound": "CCCCC1=CC2=CC(=O)C(C)(OC(=O)CC)C(=O)C2=CN1CCOC", "note": "(centres unmarked)", "hERG current change (%, negative = inhibition) at 10uM": -5.6}, {"compound": "COc1cc(/C=N/NC(=O)C(N)=O)cc(OC)c1O", "hERG current change (%, negative = inhibition) at 10uM": 23.2}, {"compound": "O=C(C(c1ccccc1)c1ccccc1)N1CCN(Cc2ccccn2)CC1", "hERG current change (%, negative = inhibition) at 10uM": -11}, {"compound": "CC(C)C[C@H](NC(=O)c1cc2cc(Cl)ccc2n1C)C(=O)N1CCC(C(=O)O)CC1", "hERG current change (%, negative = inhibition) at 10uM": 13.5}, {"compound": "Cc1cccn2c(Nc3ccccc3)c(-c3ccccn3)nc12", "hERG current change (%, negative = inhibition) at 10uM": 1.81}, {"compound": "CCCn1c(SCC(=O)N2CCCCC2)nc2c1c(=O)n(C)c(=O)n2C", "hERG current change (%, negative = inhibition) at 10uM": 16.9}, {"compound": "COc1ccc(-c2oc3ccc(N4CCOCC4)cc3c2C#Cc2ccc(N)cc2)cc1", "hERG current change (%, negative = inhibition) at 10uM": 17.3}, {"compound": "COc1cc(C(C#N)N2N=C(c3ccccc3)CC2c2ccccc2)ccc1O", "note": "(centres unmarked)", "hERG current change (%, negative = inhibition) at 10uM": -14.2}, {"compound": "COc1cccc(C(=O)NC2CCN(C(=O)N3CCCCC3)CC2)c1", "hERG current change (%, negative = inhibition) at 10uM": 19.5}, {"compound": "N/C(=N/OC(=O)c1ccccc1F)c1nonc1N", "hERG current change (%, negative = inhibition) at 10uM": 21.3}, {"compound": "C=CCNC(=O)c1onc(CSc2cccc(C)c2)c1C(=O)O", "hERG current change (%, negative = inhibition) at 10uM": -49.6}]}]}
